# Test results: the supplement of paper PMC3334620
# The full ranking holds about 33,000 sequences; the median of “E-score (-0.5 to 0.5)” is about -0.035, and the highest 2% start at about 0.35. Some of the results follow.
# Biological target: T1, Pdr3 (UniProt P33200)
# T1 sequence: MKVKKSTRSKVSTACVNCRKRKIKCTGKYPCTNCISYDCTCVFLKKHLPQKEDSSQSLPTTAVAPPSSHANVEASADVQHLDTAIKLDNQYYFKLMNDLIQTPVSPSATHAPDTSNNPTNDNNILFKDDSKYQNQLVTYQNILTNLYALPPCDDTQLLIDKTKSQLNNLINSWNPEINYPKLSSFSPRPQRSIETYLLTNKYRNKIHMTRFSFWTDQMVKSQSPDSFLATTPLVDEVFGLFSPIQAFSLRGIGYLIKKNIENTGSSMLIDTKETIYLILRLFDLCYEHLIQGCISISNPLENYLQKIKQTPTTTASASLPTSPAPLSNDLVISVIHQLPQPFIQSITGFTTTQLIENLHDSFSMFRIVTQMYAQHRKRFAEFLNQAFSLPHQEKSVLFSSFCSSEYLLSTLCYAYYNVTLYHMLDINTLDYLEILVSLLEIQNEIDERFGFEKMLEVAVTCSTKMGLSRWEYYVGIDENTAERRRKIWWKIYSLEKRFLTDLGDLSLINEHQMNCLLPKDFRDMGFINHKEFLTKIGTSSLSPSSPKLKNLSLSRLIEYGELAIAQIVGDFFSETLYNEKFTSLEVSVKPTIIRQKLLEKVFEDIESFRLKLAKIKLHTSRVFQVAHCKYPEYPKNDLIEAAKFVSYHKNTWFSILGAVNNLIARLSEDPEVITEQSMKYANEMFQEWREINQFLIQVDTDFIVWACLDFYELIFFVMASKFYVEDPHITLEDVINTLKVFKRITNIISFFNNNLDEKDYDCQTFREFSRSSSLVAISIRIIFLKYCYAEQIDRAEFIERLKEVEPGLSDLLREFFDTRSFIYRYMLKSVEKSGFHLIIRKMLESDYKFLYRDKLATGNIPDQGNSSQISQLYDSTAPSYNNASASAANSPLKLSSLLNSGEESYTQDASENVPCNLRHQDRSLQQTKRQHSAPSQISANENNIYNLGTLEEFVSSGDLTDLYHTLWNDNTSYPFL
# Test: PBM E-score (8-mer binding enrichment) (E-score (-0.5 to 0.5)); higher = stronger / more preferred TF binding; most listed sequences are background and not binding sites
# Details: protein concentration: 200 nM; construct: GST-full length
# In short: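 GST-tagged yeast TFs (full-length or DNA-binding domain) were made by PURExpress in vitro transcription/translation and applied at about 100-200 nM to universal all-10-mer Agilent arrays. The arrays were made double-stranded by primer extension, on fresh or once-stripped slides. Bound protein was detected with fluorescent anti-GST, and scans were normalised with masliner. Each ungapped eight-base word, pooled with its reverse complement, received an E-score (modified Wilcoxon-Mann-Whitney statistic) from the Universal PBM Analysis Suite.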
row,Sequence,PBM E-score
1,AGTTAAAC,-0.181
2,AACCATGC,0.206
3,ACTTAGGC,-0.206
4,ACCCCGTC,0.203
5,CTGCCAAC,-0.115
6,GGCCCAAC,-0.0391
7,GCTCTGAC,-0.188
8,ACCACATG,-0.0386
9,CCGGAACA,0.471
10,TAAATGAA,0.00383
11,GTGGTTAA,0.0263
12,GCGGGGAC,0.149
13,CGTCGTGC,0.0795
14,AGGTATAA,-0.0545
15,AATGTAAA,0.0488
16,ACTAGGGG,-0.0188
17,TGCCTACA,-0.0198
18,AGAATGCA,0.141
19,CGGCATGC,0.351
20,GTTAGCTA,-0.0596
21,CCGGAATA,0.437
22,GTTAAGCA,-0.0593
23,GCAGACAC,0.0135
24,ATCAAATG,-0.0599
25,CCCCTTGA,-0.0434

row,Sequence,PBM E-score
1,TAGGTTCA,0.0752
2,AGCTAGAT,-0.0783
3,ATAGGAGA,-0.363
4,GGCCGTAA,0.144
5,ACTAATCG,0.278
6,GAGCACGA,0.0924
7,CGCGCTAG,0.0743
8,GATGATCA,-0.144
9,GCCATACA,-0.0619
10,ATCCACAC,-0.072
11,TACTTCCA,0.109
12,AAGTGTCG,-0.0239
13,CGTCGGTC,0.157
14,GGTCCCAA,-0.0945
15,CGACTGGA,-0.0565
16,CCCCCAGC,-0.28
17,CATACCGA,-0.0073
18,AGACCTGC,-0.278
19,AACCGAAA,-0.0221
20,AAGACTTA,-0.385
21,AGTCTGCC,-0.279
22,GGGCTGTA,-0.156
23,TACCGGTA,0.103
24,AGACGATA,-0.0346
25,AATGCGGA,0.311

row,Sequence,PBM E-score
1,CTGAGTCA,-0.057
2,AACCAAGT,0.00666
3,ATGTGACC,-0.0228
4,ATGAGAGA,-0.11
5,AAGCAGGA,0.0545
6,CCATATGG,0.132
7,GGCCTTAA,-0.0743
8,TCTGCCAA,-0.313
9,TTCTGCAA,0.0593
10,ATATGCTC,0.0848
11,ATACGCAT,-0.00294
12,CACGGCGG,0.178
13,CTATACGA,-0.0979
14,ACCTATCA,-0.061
15,ACCTAGTA,-0.175
16,AAGATAAG,-0.106
17,AATCATCT,-0.101
18,CCTGGTCA,-0.169
19,AGATCGTG,-0.174
20,AAGGCCCA,-0.228
21,CACGCATG,-0.14
22,CTGAAGAC,-0.113
23,CCGAGTAA,0.157
24,GGTCACAC,-0.36
25,ACGACTTA,-0.287

row,Sequence,PBM E-score
1,GACTGCAC,-0.179
2,CCAGACAA,-0.125
3,TACTACGA,-0.0479
4,TAACCCGA,0.0621
5,TCCTCTAA,-0.193
6,TAGGGTGA,0.00768
7,CTACCCTA,-0.147
8,ACAAATAC,0.0413
9,ATCGGGAC,0.163
10,CGTCTCCA,0.0712
11,AAGGGATC,0.0636
12,CGGAGATA,0.386
13,AGGAGCTA,-0.374
14,AGTCCAGA,-0.144
15,ATCCCGTA,0.242
16,CAGCACCG,0.0881
17,CATGTGTA,-0.0603
18,AGGCCAAG,-0.156
19,AGGAGCAC,-0.0134
20,AACAGGGA,0.00934
21,CGAATGCA,-0.00384
22,CAGAGTGC,-0.125
23,AGCCTCTA,-0.333
24,CCCACCCC,0.198
25,ACATCTTG,-0.126

row,Sequence,PBM E-score
1,AGATATTC,-0.0705
2,AATAAACG,-0.0217
3,GGCTCGTA,-0.035
4,GTTTACAA,-0.0369
5,CTCATTAC,-0.0319
6,TCCGCCAA,0.264
7,GGCATGCA,-0.0346
8,ACTTGCTG,-0.278
9,ACGGCCTC,0.0451
10,AACCCTAC,-0.229
11,ATTATACG,0.202
12,ATGGACCC,-0.0167
13,GCGCGGCC,0.219
14,ACGCCCTG,0.0456
15,CATGCGCA,0.0514
16,AATGGGCT,-0.161
17,TGGGGTAA,0.0964
18,CCGACGCA,0.0126
19,AACCGGAA,0.435
20,ACCCAATA,-0.026
21,AGCGCTGC,-0.157
22,CAACACAA,-0.13
23,ATAACATG,0.00778
24,GATAATAC,0.0742
25,ATACATAT,0.226

row,Sequence,PBM E-score
1,AATGTAAG,0.033
2,ACGCAGGA,-0.232
3,AAGAGGGG,-0.158
4,CCGCGTCG,0.269
5,GCTTTAAA,-0.0479
6,GGGCGTCA,0.0172
7,GCCGCCAA,0.113
8,GATTTCAC,0.0747
9,CGCAAATA,0.125
10,CCCTCACC,-0.0867
11,GAACATGC,0.0198
12,CAATCGCC,0.0564
13,AGCGATCG,0.0757
14,ATCAGCAC,-0.0673
15,AATTCAAT,-0.0229
16,AGTCGAAC,0.0104
17,ACGAAATC,0.0416
18,ATTTAATG,0.11
19,ATGTAGCC,-0.165
20,ACATTGGA,-0.186
21,ACGAAGCT,-0.097
22,AGAGCCGC,0.0785
23,CCGCAACA,0.219
24,CGCATCAG,0.142
25,CCGTTCTA,0.239

row,Sequence,PBM E-score
1,CGCGCCAA,0.203
2,TGAAGGAA,-0.0606
3,ACGGGTCG,0.227
4,ATATCACC,0.0724
5,GCTGATCA,0.033
6,TATTGAAA,0.0374
7,ATTCTTGA,-0.0577
8,ATTGCCCG,0.0498
9,AGCGCTGA,0.186
10,CATGGCAG,0.0653
11,ATCAACCA,-0.0605
12,CCGAGCCG,0.359
13,CCGGTTAC,0.191
14,ATGATCAA,-0.164
15,GGTCCTAC,-0.179
16,ATTCGTCC,0.275
17,ATATACGA,-0.238
18,CGCAGCGC,0.0256
19,ATAGCGAC,-0.186
20,ACATGTCT,-0.0977
21,AAAGTGAG,-0.016
22,AGAGGGCA,-0.279
